From the RNAGym collection of RNA variant scans (doi:10.1093/nar/gkz1192) come the findings set out here.

The source gives no read counts; variants with many changes may rest on few reads.

B1: CPEB3 Ribozyme (parent)
chain: UAACAGGGGGCCACAGCAGAAGCGUUCACGUCGCAGCCCCUGUCAGAUUCUGGUGAAUCUGCGAAUUCUGCUGUAUAUCUC

Variants of B1 are the subject of the data set. Description: self-cleavage, relative activity (ratio to wild type); higher = more cleavage; in vitro, sequencing. The method, boiled down:
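Relative activity was defined as the cleaved/total read fraction for a variant divided by the same fraction for the unmutated ribozyme. CPEB3 self-cleaving ribozyme libraries were made by rounds of error-prone PCR, barcoded, and transcribed in vitro with T7 RNA polymerase for 5 hours at 37°C, and cleavage ran through transcription plus a 15 min DNase I step before EDTA. Illumina sequencing of template-switched reverse transcripts gave the reads, and DNA sequencing mapped the barcodes. Averages come from three batches, using variants with at least 5 reads.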
Take A15G U41C A45U A47G U80C: the self-cleavage was 0.45.

Regarding A15U A28C A45U A77G, the self-cleavage amounted to 0.09. As for A15G U43C A45G G63U U78C, the figure is 0.44; as for A15G U31G U58C U74A, 0.79. As for A15G U26C U54C, the figure is 0.48; as for A15G U26A A28U A45U U51A, 0.16; as for A15U A18G A47U G53A C71A U80A, 0.03. As for A15G U25C A45G U49A, the figure is 0.47; as for A15G U51C U54A A64G, 0.28; as for A15G U31C A45G U51A A56G U69A U76C, 0.07. Consider A15G U26G U43C, for which the self-cleavage is 0.71. The figure for A15G U48C A56G is 0.19; for A15G U43A U60C it is 0.28; for A15G U51C A64G U78C it is 0.5. The figure for A15G U41A U72C is 0.55; for A15G U26G A35U U41A U51C U80C it is 0.39; for A15G U69A U72A it is 0.19.

As for A15U A20U U41C U43G, the self-cleavage was 0.33. As for A15G U25C U31C U72C, the figure is 0.42; as for A15G U25C U51A U60C A65C, 0.1; as for A15U A21G G22U G33C C44A G55C, 0.05. The figure for A15G U60C A77G U80C is 0.35; for A15G U51A U60C it is 0.42. As for A15U A18G U43C A64G, the figure is 0.18.

Regarding A15G U31C U48C, the self-cleavage came out at 0.28. In the case of A15U A21G U31A U72A, the self-cleavage amounted to 0.09. Consider A15G U41G U48C U78C, for which the self-cleavage came out at 0.14. The figure for A15G U26C A45U A56G is 0.12; for A15G U43C G61A it is 0.14; for A15G U41A U69G it is 0.26.

For A15G U26C A45C U60C, the self-cleavage was determined as 0.37. On to A15G U31A A56G, for which the self-cleavage came out at 0.36. The figure for A15G U26C U80C is 0.57; for A15G U58C U72C it is 0.63.

With A15G U41C A47G U58A U72C, the self-cleavage is 0.65. With A15G U31A U51A, the self-cleavage was found to be 0.69. As for A15G U25C U54A A56G U60A, the figure is 0.21; as for A15U A18G U58A U72C, 0.19.

As to A15G U31A A57G U78A, the self-cleavage is 0.74. The figure for A15G U25C U76A is 0.41. As for A15G U67C U72A, the figure is 0.3; as for A15G U43C G46A A56G U67C, 0.13.

As to A15U A21G U25C A64G, the self-cleavage was determined as 0.1. The figure for A15U A21G U26C A47U U72C is 0.05; for A15U A21G U72C it is 0.66. As for A15U A28G G53A, the figure is 0.2; as for A15G U26C A35U U60A U66C U80C, 0.08. The figure for A15G U31C U60A A64G is 0.35.

With A15G U41A U48C A56U U80G, the self-cleavage turned out to be 0.22.

On to A15G U49C A57U G61A, for which the self-cleavage was 0.08. Consider A15G U25A U51C U67C, for which the self-cleavage came out at 0.04. The figure for A15U A18U A64U U67A is 0.16; for A15G U41C U48C U78C it is 0.62; for A15G U26A U41C G52C G53A C59U U60C it is 0.19.

In the case of A15G U26C G30U G33C A47G U69A U80C, the self-cleavage was determined as 0.08. The figure for A15G U54C U60A is 0.25. As for A15G U25C U26G A57G A75G, the figure is 0.34; as for A15G U25C U43C, 0.26; as for A15G U26C A57G, 0.4. As to A15G U41C U58C, the self-cleavage stood at 0.26. The figure for A15U A20G C34A A77G is 0.03; for A15U A18G U69C U74C it is 1.03. The figure for A15U A21G A57U U69C C81U is 0.09.

With A15U A28G A35G G61A, the self-cleavage stood at 0.55. The figure for A15U A18G A56G U69C is 0.56; for A15G U26C U49G it is 0.27. As for A15U A18G G19C G52U U69C U72C, the figure is 0.13; as for A15U A18G U54C U67C, 0.1; as for A15G U26A U51A, 0.24. As for A15G U54A U80A, the figure is 1.15; as for A15G U31C A64U, 0.19; as for A15G U41C U49C C79A, 0.2. Take A15G U26C A28G G52C U67C: the self-cleavage turned out to be 0.07.

Turning to A15G U72C U78C, the self-cleavage was 1.19.

Take A15U A18G C50G U72C: the self-cleavage came out at 0.15. For A15U A21G A35G U43C U54G U60C, the self-cleavage is 0.07. As to A15G U51G A57U, the self-cleavage was found to be 0.42. As for A15G U51A C59U U69C, the figure is 0.24; as for A15G U26C U43A A47G U69C, 0.2. The figure for A15U A20G C29A A45U U74C is 0.17. A15U A20G G24A A28G U31C U41C: the self-cleavage was found to be 0.05.

Turning to A15G U43A C62U U66C A75G U80C, the self-cleavage is 0.22.

Turning to A15U A20U A45G U72C A77G, the self-cleavage is 0.2.
